Measured values as given in PubChem BioAssay AID1159614 (National Center for Advancing Translational Sciences (NCATS), 2016).
In all, about 45,000 compounds went through this assay and about 65 (0.1%) were called active. Calls come from the whole dose curve; as a rule, active = well fitted activation curve with a large enough effect; inconclusive = small, poorly fitted or top-dose-only effect; inactive = no such curve, though single readings can be large or run the other way. The list shows a part of the results.

molecular target: Galactocerebrosidase (Homo sapiens) (UniProt P54803); assay: A Novel Cell-Based Assay to Identify Small Molecules for B -Galactocerebrosidase; conditions: 145M-Twi-hGALC-G270D cells, HMU-beta-Gal fluorescence, 48 h; series mostly up to 57.5 µM; activation: at the top concentration; note: 0% is about no effect; nearly all actives have a fitted effect of over 65% in size
Method in brief: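 qHTS, 1536-well; 145M-Twi-hGALC-G270D cells (WT line also made) in DMEM/F12 + 10% FBS; compound incubation on live cells; HMU-β-gal 0.1 mM final, pH 5.2, NaTC; carbonate stop; fluorescence increase = enhanced residual activity.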

Chain of UniProt P54803 (P54803 whole entry, looked up): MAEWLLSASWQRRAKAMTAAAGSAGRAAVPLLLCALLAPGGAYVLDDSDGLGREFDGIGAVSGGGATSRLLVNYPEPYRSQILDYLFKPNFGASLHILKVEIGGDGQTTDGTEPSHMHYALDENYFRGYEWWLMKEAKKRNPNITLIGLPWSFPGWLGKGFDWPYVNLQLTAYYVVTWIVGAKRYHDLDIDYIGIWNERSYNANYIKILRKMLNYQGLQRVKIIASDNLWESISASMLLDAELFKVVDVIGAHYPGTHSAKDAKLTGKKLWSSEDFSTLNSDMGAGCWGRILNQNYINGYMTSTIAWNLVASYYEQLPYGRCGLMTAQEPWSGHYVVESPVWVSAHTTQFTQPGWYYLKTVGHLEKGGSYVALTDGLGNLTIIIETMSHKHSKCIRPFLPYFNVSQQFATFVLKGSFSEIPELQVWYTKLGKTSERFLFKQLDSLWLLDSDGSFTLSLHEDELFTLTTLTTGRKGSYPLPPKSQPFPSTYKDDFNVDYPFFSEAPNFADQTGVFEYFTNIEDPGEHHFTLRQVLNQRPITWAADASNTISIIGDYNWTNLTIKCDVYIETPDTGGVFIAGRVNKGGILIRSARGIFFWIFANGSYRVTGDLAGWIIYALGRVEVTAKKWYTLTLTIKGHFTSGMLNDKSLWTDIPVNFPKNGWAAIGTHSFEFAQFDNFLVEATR

activation, inactive:
Cc1cc(-c2ccc(C)c(S(=O)(=O)Nc3ccccc3C(F)(F)F)c2)on1 -31.2%, Cc1ccc2c(CC(=O)NCc3ccccc3)coc2c1C -24.2%, CCOC(=O)c1c(C)[nH]c(CCC(=O)NCCCN2CCN(c3cc(Cl)ccc3C)CC2)c1C -13.3%, Cc1c(CCNC(=O)Cc2ccc(F)cc2)sc2nc(-c3ccc(F)cc3)nn12 -10.4%, CCCCN(C)CCNC(=O)C1CCCN(S(=O)(=O)c2ccc3c(c2)oc(=O)n3C)C1 (stereo unspecified) -2.69%, O=C(Cn1c(=O)c2ccccc2n(CC(=O)Nc2ccc(Cl)cc2)c1=O)NCCc1ccccc1 -25.6%, CCc1ccccc1NC(=O)Cn1c(=O)n(CCCS(=O)(=O)C2CCCCC2)c(=O)c2ccccc21 10.8%, COc1ccc(NC(=O)CCCn2c(=O)c3cccn3c3ccccc32)c(OC)c1 -2.64%, COc1ccc(C(=O)Oc2c(Sc3ccc(Cl)cc3)c(C)nn2C(C)(C)C)cc1OC -12%, O=C(NCCc1csc(-c2ccc(C(F)(F)F)cc2)n1)C(=O)Nc1cc(F)ccc1F -15.4%, Cc1ccccc1NS(=O)(=O)c1nnc(NC(=O)c2ccc(Cl)cc2)s1 -19.4%, CCOC(=O)c1[nH]c(C)c(CCC(=O)Nc2ccc(C(C)=O)cc2)c1C -18.4%, O=C1C(c2cccc(Br)c2)N(CCc2ccccc2)C(=O)CN1C1CCCCC1 (stereo unspecified) -8.22%, CCOc1cccc(CNCCNC(=O)c2nonc2N)c1 16.2%, Cc1cccc(CNS(=O)(=O)c2csc(C(N)=O)c2)c1 -6.84%, CCOc1ccc(C(=O)Nc2cccc(OCc3cc(=O)n4ccccc4n3)c2)cc1 -8.27%, CCN(CC)C(=O)Cn1cc(SCC(=O)Nc2cccc(F)c2)c2ccccc21 -18.2%, COc1ccc(C(CC(=O)O)NC(=O)c2cc3ccccc3oc2=O)cc1OC (stereo unspecified) -10.1%, Cc1ccc(S(=O)(=O)c2cnc(SCC(=O)Nc3cccc(Cl)c3)nc2N)cc1C -14.1%, Cc1ccc(C2c3c(-c4cc(C)ccc4O)n[nH]c3C(=O)N2Cc2ccco2)cc1 (stereo unspecified) -9.59%, O=C(Nc1cccc2cccnc12)c1ccccc1[N+](=O)[O-] -3.65%, Oc1ccc(Nc2nc3ccccc3n3cnnc23)cc1 1.75%, Cc1cccc(Cn2c(=O)n(Cc3ccc(C(=O)NC4CCN(Cc5ccccc5)CC4)cc3)c(=O)c3ccccc32)c1 -8.52%, CCOC(=O)c1cnc2c(C)cc(C)cc2c1Nc1cccc(C(=O)O)c1 -11.7%, CCOCCCNC(=O)CN1C(=O)COc2ccc(S(=O)(=O)N3CCCCCC3)cc21 -6.96%, CCc1cccc(C)c1NC(=O)CCCn1c(=O)c2cccn2c2cccnc21 -13.2%, CC(C(=O)NCc1ccccc1Cl)n1ccc2cc(S(=O)(=O)N3CCCCC3)ccc21 (stereo unspecified) 8.98%, CC(=O)c1ccc(N2CCN(c3ccc(NC(=O)c4cccs4)cc3C(=O)O)CC2)cc1 15.8%, Cc1ccc(NC(=O)CSc2nnc3nc(C)cc(C)n23)cc1 10.9%, Cc1cccc(Cn2ccn(Cc3ccc(Cl)cc3)c(=O)c2=O)c1 -16.8%, O=c1c2ccccc2n2c(-c3ccccc3O)nnc2n1Cc1ccc(F)cc1 -14.6%, Cc1ccc(C)c(NC(=O)CN2C(=O)c3cccc4cccc2c34)c1 5.34%, CCOC(=O)c1ccccc1NC(=O)NC(C)c1c(-n2cccc2)sc(C)c1C (stereo unspecified) 5.8%, O=C(c1ccc2c(c1)N(Cc1ccccc1)C(=O)c1ccccc1S2(=O)=O)N1CCCC1 -0.924%, CCC(Sc1nc2c(sc3ccccc32)c(=O)n1CCc1ccccc1)C(=O)N(CC)CC (stereo unspecified) -12.4%, CCCCCC(=O)N1c2ccccc2C(C)(c2ccccc2)CC1(C)C (stereo unspecified) -27%, O=C(c1ccccc1Br)N(Cc1ccco1)C1CCS(=O)(=O)C1 (stereo unspecified) -14.6%, COc1ccc(Cn2c(C(=O)O)c(CNCC(C)c3ccccc3)c3ccc(OC)cc32)cc1 (stereo unspecified) -7.6%, Cc1ccc(C)c(N2CCN(C(=O)Nc3cn(CC(C)C)c(=O)c4ccccc34)CC2)c1 -21%, COc1ccc(NC(=O)CN2C(=O)C(c3ccc(C(C)(C)C)cc3)=NC2(C)C)cc1Cl -3.19%, COc1cccc(CCNC(=O)Cn2c(-c3cccs3)cc3ccccc32)c1 -7.3%, Cc1cc(C)cc(-n2c(SCC(=O)NCc3ccco3)nc3c([nH]c4ccccc43)c2=O)c1 -5.28%, CCOC(=O)N1CCN(Cc2nc3cc(NC(C)=O)ccc3n2C(C)C)CC1 -21.3%, CC(C)NC(=O)CCn1c(SCc2c(F)cccc2Cl)nc2c(sc3ccccc32)c1=O -13.3%, Cc1cccc(Cc2cnc(NC(=O)C3Cc4ccc(C)cc4C(=O)O3)s2)c1 (stereo unspecified) 1.16%, COc1cccc(Cn2c(=O)n(CC3CCC(C(=O)N4CCCCC4)CC3)c(=O)c3sccc32)c1 (stereo unspecified) -12.5%, COc1ccccc1N1CCN(C(=O)C2CCN(S(=O)(=O)c3c(C)noc3/C=C/c3ccc(C)cc3)CC2)CC1 -10.6%, CCCCn1c(SCC(=O)Nc2cccc(OC)c2)nc2c(sc3ccccc32)c1=O -15%, CCOC(=O)c1cc(-c2ccc(C)cc2)n(CCC(=O)Nc2nc3c(C)cccc3s2)c1C -5.47%, Cc1cc(-n2c(SCC(=O)NCc3ccccc3)nc3ccsc3c2=O)ccc1Cl -2.63%, Cc1ccc2c(c1)c(=O)c1ccccc1n2CCCC(=O)Nc1ccc(C)c(F)c1 -0.167%, Cc1nnc2c(N3CCN(c4ccccc4F)CC3)nc3ccccc3n12 -8.89%, COc1ccc(NC(=O)NCCc2c(C)nn(C)c2C)c(OC)c1 0.964%, CCc1ccc(NC(=O)CSc2nnc3[nH]c(=O)cc(-c4ccccc4)n23)cc1 -2.64%, CCOC(=O)c1c(C)[nH]c(CCC(=O)Nc2ccccc2C(F)(F)F)c1C -0.467%, CCCS(=O)(=O)N1CC(=O)N(c2cccc(F)c2)C(C)(C(=O)NC2CCCCCC2)C1 (stereo unspecified) -16.2%, COc1ccc(C(=O)Nc2ccc(S(=O)(=O)Nc3cc(C)nc(C)n3)cc2)cc1 -14.5%, O=C(CCS(=O)(=O)c1cc2c(cc1Cl)NC(=O)CO2)NCCc1ccccc1 -14.9%, CCN(C(=O)CCc1nc(-c2ccc(C)cc2)no1)c1cccc(C(F)(F)F)c1 -2.68%, Cc1cc(NS(=O)(=O)c2ccc(N)cc2)no1 -11%, Cc1cccc(N2CCN(C(=O)c3nn(C)c4c3CS(=O)(=O)c3ccccc3-4)CC2)c1C -6.91%, COc1ccc(CNC(=O)c2ccc3c(O)c(S(=O)(=O)c4ccccc4)c(=O)[nH]c3c2)cc1 -15.3%, CS(=O)(=O)N(Cc1ccccc1)c1ccc(C(=O)Nc2cccc(Cl)c2)cc1 -0.581%, COc1ccc(NC(=O)c2c(NC(=O)C(F)(F)F)sc3c2CCCCC3)cc1 -12.5%, COc1ccc(Cn2ccc3nc(C)c(C(=O)N4CCN(c5cccc(OC)c5)CC4)cc3c2=O)cc1 -6.64%, CCCCC1CCC(C(=O)N2CC(=O)Nc3ccc(C)cc3C2c2ccc(F)cc2)CC1 (stereo unspecified) -8.45%, COc1cc(CNc2ccc3[nH]c(=O)[nH]c3c2)ccc1OCc1ccc(F)cc1Cl -16%, COC(=O)c1ccc2c(=O)n3nc(Nc4ccc(F)cc4F)sc3nc2c1 -16.9%, COc1ccc(CN2CCc3c(c(=O)n4ncc(C(=O)N5CCN(c6ccccc6F)CC5)c4n3C)C2)cc1 -27.1%, COc1ccccc1N1CCN(C(=O)c2cc(-c3ccc(C)c(F)c3)on2)CC1 -8.68%, O=C(Nc1cccc(C(F)(F)F)c1)Nc1nnc(N2CCCCCC2)s1 -13.6%, COCCCNC(=O)CN1C(=O)c2cccnc2Sc2ccccc21 -14.6%, CC(=O)c1cccc(NC(=O)CN2C(=O)CCc3cc(S(=O)(=O)N4CCCCC4)ccc32)c1 -6.21%, CCOc1ccc(S(=O)(=O)N2Cc3ccccc3CC2C(=O)Nc2ccc(NC(C)=O)cc2)cc1 (stereo unspecified) -25.4%, CCCCN1CC(c2nc3ccccc3n2CCCCOc2cc(C)cc(C)c2)CC1=O (stereo unspecified) -37.5%, CCN(CC)CCNC(=O)C(=O)Nc1c2c(nn1-c1ccc(F)cc1)CSC2 -12.4%, COc1cccc2cc(C(=O)Nc3ccc(CC(=O)O)cc3)c(=O)oc12 -9.95%, Cc1ccc(NC(=O)CSc2nc(-c3ccco3)cc(C(F)(F)F)n2)c(C)c1 -4.77%, Cc1cccc(NC(=O)CSc2nc3ccc(NC(=O)COc4ccccc4C)cc3s2)c1 -6.28%, CCCNC(=O)CCC(=O)N1Cc2cccc(OC)c2Oc2ncccc21 -10.2%, CC1CN(C(=O)NCc2ccccc2)c2cc(Cl)ccc2O1 (stereo unspecified) -9.34%, CCn1c2c(c(=O)n3ncc(C(=O)Nc4cc(Cl)ccc4OC)c13)CN(Cc1ccc(OC)cc1)CC2 -8.18%, Cc1c(C(=O)OCCOc2ccccc2)[nH]c2c1C(=O)CC(c1ccc(C(C)(C)C)cc1)C2 (stereo unspecified) -16.3%, O=C(NCc1ccc(Cl)cc1)C1CCN(c2nn3cc(-c4ccc(F)cc4)nc3s2)CC1 -0.469%, CCCCc1cc(=O)oc2cc(C)c3c(C(C)(C)C)coc3c12 -37.9%, COc1ccc(C)cc1NC(=O)N1CCN(S(=O)(=O)c2ccc3c(ccn3C)c2)CC1 -11.4%, COc1cccc(CNC(=O)c2cc(-c3ccc(Cl)s3)nc3ccccc23)c1 -5.15%, COc1ccc(NC(=O)c2nc(S(C)(=O)=O)ncc2N(Cc2ccc(C)cc2)Cc2ccco2)cc1Cl -8.2%, Cc1cccc(CSc2nc3c(sc4ccccc43)c(=O)n2CCC(=O)NC(C)C)c1 6.32%, Cc1ncc(CO)c2c1Oc1nc(-c3ccc(Cl)cc3)nc(SCC(=O)N3CCCCC3)c1C2 -7.8%, CC(C)(C)NC(=O)C1CCN(c2nc3ccccc3nc2C(F)(F)F)CC1 -0.56%, CCCCc1nnc(SCc2cc(=O)c3cc(F)ccc3[nH]2)n1C 7.57%, COc1ccc(-c2cc(C(F)(F)F)nc(SCCC(=O)Nc3ccc(OC)c(OC)c3)n2)cc1 -0.411%, Cc1ccc(NC(=O)c2sc3nc(-c4cccs4)ccc3c2N)cc1F -21.4%, CCN1CCC(N(Cc2ccc3c(c2)OCO3)C(=O)Nc2cc(F)ccc2F)CC1 -5.02%, CCN(CC)C(=O)c1c(NC(=O)c2cccc(C)c2)sc2c1CCC(C)C2 (stereo unspecified) -8.97%
